Measurements reported in patent publication US20260265409A1 (NANJING LEADS BIOLABS, published 2026).

What was measured:
[1] = target: T1, human TGFβ1 protein (Sino Biological, Cat #10804-HNAC) (human, UniProt P01137 part only); assay: BLI (ForteBio Octet RED96), fusion protein captured on AHC sensor, TGFβ1 as analyte, 1:1 model
T1 construct: also called Recombinant human TGFβ1

[2] = target: T2, recombinant human FAP protein (Sino Biological, Cat #10464-H07H) (human, UniProt Q12884 26-760); assay: BLI (ForteBio Octet RED96), fusion protein captured on AHC sensor, FAP as analyte, 1:1 model
T2 construct: Bought protein
T2 sequence: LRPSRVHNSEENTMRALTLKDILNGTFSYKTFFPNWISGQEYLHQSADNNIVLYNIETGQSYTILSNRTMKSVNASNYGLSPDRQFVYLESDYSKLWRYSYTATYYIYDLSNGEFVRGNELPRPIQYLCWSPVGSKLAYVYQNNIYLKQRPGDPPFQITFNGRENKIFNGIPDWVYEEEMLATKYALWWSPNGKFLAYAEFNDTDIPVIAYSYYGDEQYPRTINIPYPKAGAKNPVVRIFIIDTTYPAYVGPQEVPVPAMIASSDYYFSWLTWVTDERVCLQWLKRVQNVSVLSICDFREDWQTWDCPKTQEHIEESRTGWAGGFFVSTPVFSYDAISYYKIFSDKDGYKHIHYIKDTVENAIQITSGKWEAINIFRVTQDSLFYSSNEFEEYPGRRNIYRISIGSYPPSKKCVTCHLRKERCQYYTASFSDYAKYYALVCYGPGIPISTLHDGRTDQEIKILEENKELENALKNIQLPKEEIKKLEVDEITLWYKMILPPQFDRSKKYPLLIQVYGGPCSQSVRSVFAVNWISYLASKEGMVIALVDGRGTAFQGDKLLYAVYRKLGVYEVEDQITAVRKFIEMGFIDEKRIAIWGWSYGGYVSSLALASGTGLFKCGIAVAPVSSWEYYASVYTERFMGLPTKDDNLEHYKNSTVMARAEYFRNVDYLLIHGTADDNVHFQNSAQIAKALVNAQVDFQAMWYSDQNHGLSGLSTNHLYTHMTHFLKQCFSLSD

[3] = target: T3, human TGFβ2 protein (Novoprotein, Cat #CJ79) (human, UniProt P61812 303-414); assay: BLI (ForteBio Octet RED96), fusion protein captured on AHC sensor, TGFβ2 as analyte, 1:1 model
T3 construct: also called Recombinant human TGFβ2
T3 sequence (looked up): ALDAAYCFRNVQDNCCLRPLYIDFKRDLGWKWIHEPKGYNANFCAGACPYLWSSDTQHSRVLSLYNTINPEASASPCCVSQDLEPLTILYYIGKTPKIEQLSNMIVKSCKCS

[4] = target: T4, human FAP protein expressed on 293T cells (293T-human FAP) (human, UniProt Q12884 1-760); assay: flow cytometry on 293T-human FAP cells, PE goat anti-human IgG Fc secondary antibody
T4 sequence: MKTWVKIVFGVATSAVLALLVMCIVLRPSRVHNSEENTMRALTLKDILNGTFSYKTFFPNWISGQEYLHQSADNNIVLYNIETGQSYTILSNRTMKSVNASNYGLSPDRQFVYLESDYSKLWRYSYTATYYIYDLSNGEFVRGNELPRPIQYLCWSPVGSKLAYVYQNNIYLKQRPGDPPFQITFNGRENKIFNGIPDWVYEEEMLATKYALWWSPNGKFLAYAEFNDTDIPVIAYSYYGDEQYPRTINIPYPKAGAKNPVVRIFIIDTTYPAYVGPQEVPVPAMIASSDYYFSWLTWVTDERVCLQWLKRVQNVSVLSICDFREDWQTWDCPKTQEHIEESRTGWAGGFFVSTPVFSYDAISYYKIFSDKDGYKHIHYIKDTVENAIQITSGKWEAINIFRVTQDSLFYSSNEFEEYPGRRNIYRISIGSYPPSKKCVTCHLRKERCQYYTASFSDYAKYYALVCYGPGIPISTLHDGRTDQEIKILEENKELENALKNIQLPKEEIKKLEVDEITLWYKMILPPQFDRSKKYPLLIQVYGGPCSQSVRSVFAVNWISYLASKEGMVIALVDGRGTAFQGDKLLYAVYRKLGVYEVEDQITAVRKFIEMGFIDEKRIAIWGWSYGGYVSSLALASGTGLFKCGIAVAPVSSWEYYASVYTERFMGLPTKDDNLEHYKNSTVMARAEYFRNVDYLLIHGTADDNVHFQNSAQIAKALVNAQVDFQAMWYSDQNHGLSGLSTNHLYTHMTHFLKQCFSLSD
Experimental: The cells were washed twice with PBS, and then fluorescent secondary antibody R-PE-conjugated AffiniPure Goat Anti-Human IgG, Fcγ Fragment Specific (Jackson Immuno Research, Cat #109-116-098) was added. The cells were incubated at 4° C. for 30 min. The cells were washed twice with PBS and then resuspended, and finally, fluorescence signals were detected using the […] (BD Bioscience) flow cytometer.

T1 sequence (P01137 279-390 limits assumed): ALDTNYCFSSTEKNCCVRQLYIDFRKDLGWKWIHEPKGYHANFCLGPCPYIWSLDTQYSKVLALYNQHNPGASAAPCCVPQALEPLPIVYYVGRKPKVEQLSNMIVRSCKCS

B1: antibody fusion protein LG-NGR-Trap (other)
heavy: QVQLVQSGAEVKKPGASVKVSCKASGYTFTEYTIHWVRQATGQGLEWIGGINPNNRIPNYNQKFKGRATMTVGTSISTAYMELSSLRSEDTAVYFCARRRIAYGYDEGHAMDYWGQGTLVTVSS[human IgG1 constant region not written out]IPPHVQKSVNNDMIVTDNNGAVKFPQLCKFCDVRFSTCDNQKSCMSNCSITSICEKPQEVCVAVWRKNDENITLETVCHDPKLPYHDFILEDAASPKCIMKEKKKPGETFFMCSCSSDECNDNIIFSEEYNTSNPD
light: DIQMTQSPSSLSASVGDRVTITCKSSQSLLYSRNQKNYLAWFQQKPGKAPKLLIFWASTRESGVPSRFTGSGFGTDFTLTISSLQPEDFATYYCQQYFSYPLTFGQGTKLEIKRTVAAPSVFIFPPSDEQLKSGTASVVCLLNNFYPREAKVQWKVDNALQSGNSQESVTEQDSKDSTYSLSSTLTLSKADYEKHKVYACEVTHQGLSSPVTKSFNRGEC
notes: also called huF19-LG-NGR-Trap; anti-FAP-Trap
B1 was tested, and the Kd [1] was 0.252 nM, the Kd [2] was under 0.001 nM and the Kd [3] was 0.804 nM. The “EC50 (read off the curve)” value [4] was about 1 nM.
